# Several values for one entry are separate records, joined by “and”; a condition that tells them apart may be missing. Equal values may be shown once. This is one part of the list. Further columns of the screen follow, without active or inactive calls. The list favours compounds with an active or inconclusive main result. For part of these data: The note in brackets gives the kind of curve behind each potency; many fits are weak.
# Tests used:
# [1] = qHTS Assay for Lipid Storage Modulators (AID 1519); conditions: Drosophila S3 cells, BODIPY lipid droplet/cell ratio, laser cytometry, cells loaded with oleic acid
# In short: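 Cells seeded at 5,000 per well were treated with compounds over a concentration series and loaded with oleic acid (400 uM, as added). Lipid droplet fluorescence (488 nm excitation, 500-530 nm channel) was read by laser-scanning cytometry and normalized to 20 uM Triacsin C.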
# [2] = qHTS Assay for Modulators of Human Peripheral Myelin Protein 22 (PMP22) Expression/Activity (AID 1967); conditions: Cell-based PMP22 reporter, dual-color luciferase ratio
# In short: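 Mouse MSC80 Schwann cells carrying Pmp22 promoter–green click beetle luciferase plus EF-alpha–red luciferase control, dosed 24 h at 37 °C. Dual-filter luminescence, overlap-corrected; %Activity from green/red ratio normalised to untreated cells, concentration-response curves fitted.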
# [3] = qHTS for identification of novel therapeutic agents for treatment of microphthalmiaassociated transcription factor (MiT) renal cell carcinoma (RCC) (AID 1963991); conditions: CellTiter-Glo, 48 h, stronger effect = lower value
# In short: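 Curves over 11 concentrations were fitted to CellTiter-Glo luminescence, scaled between empty wells (0%) and DMSO (100%) viability. Cells were UOK109, UOK124 and UOK145 TFE3-fusion RCC lines at 500/well, exposed 48 hours at 37 C.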
# [4] = qHTS Assay for Inhibitors of PDE-IV (AID 607); conditions: HEK293 ACTOne CNG channel cells, membrane potential fluorescence; measured here: parental cell counter-screen;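 further: parental cells stimulated with forskolin 10 µM plus RO 20-1724 100 µM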
# In short: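 Cell-based read-out of cAMP via a modified cyclic nucleotide-gated channel and membrane potential dye (535/590 nm) in HEK293 cells expressing PDE4 endogenously. Compounds tested up to 22.9 uM final; 100 uM RO 20-1724 reference.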
# [5] = qHTS Validation Assay to Find Inhibitors of Chronic Active B-Cell Receptor Signaling (AID 485345); conditions: ABC-DLBCL cells, chronic BCR signaling reporter
# In short: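 TMD8 ABC-DLBCL cells with dox-inducible green luciferase–IκBα fusion and red native luciferase; compounds 46 uM–3 nM, 4 h at 37C with doxycycline in 0.5% FBS IMDM. Green/red ratio normalized to basal and 10 uM MG-132.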
# [6] = S16 Schwann cell PMP22 intronic element beta-lactamase assay (AID 624044); conditions: S16 rat Schwann cells, PMP22 element beta-lactamase FRET, 24 h; measured here: 460 nm blue channel; further: nearly all actives have a fitted effect of over 15% in size
# In short: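 Rat S16 Schwann cells with beta-Lac driven by a PMP22 intronic element, compound-treated 24 h at 37 °C. LiveBLAzer FRET B/G read: 460 nm normalized to potassium clavulanate vs DMSO; 535 nm FRET as viability; concentration-effect curves classified.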
# [7] = measured here: cell count channel max response
# [8] = measured here: cell number channel AC50
# [9] = measured here: lipid (BODIPY) channel AC50
# [10] = measured here: lipid channel max response
# [11] = measured here: red reporter channel AC50, EF-alpha promoter control reporter in MSC80 mouse Schwann cells
# [12] = measured here: green reporter channel AC50, mouse Pmp22 promoter in mouse Schwann cells
# [13] = measured here: CBR control luciferase (viability counter)
# Tags describe the fitted curve by direction and shape.
smiles,measurement,setting,value
O=C(CCc1ccc(O)cc1)c1c(O)cc(O)cc1O,max response,[1]; [7],90.9% and 74.4%
same,AC50,[1]; [8],"39.8 µM [rising, partial curve, poor fit]"
same,AC50,[1]; [9],"35.5 µM [rising, partial curve, poor fit] and 39.8 µM [rising, single point]"
same,max response,[1]; [10],106% and 66.7%
same,AC50,[2]; [11],"84.9 µM [falling, single point]"
same,z-score,"[3]; TFE3-RCC UOK109 viability, measured here: UOK109 Z-AUC",-0.655
same,z-score,"[3]; TFE3-RCC viability, measured here: UOK124 Z-AUC",0.403
same,z-score,"[3]; TFE3-RCC viability, measured here: UOK145 Z-AUC",1.1
CC(C)NC[C@H](O)c1ccc(O)c(O)c1,max response,[1]; [7],-8.9% and 42.9%
same,AC50,[1]; [8],"2.82 µM [falling, full curve, poor fit]"
same,AC50,[1]; [9],"1.12 µM [rising, partial curve, poor fit] and 3.16 µM [falling, full curve, poor fit]"
same,max response,[1]; [10],-9.1% and 41.2%
same,AC50,[2]; [11],"95.3 µM [falling, single point]"
c1cnc(N2CCN(Cc3ccc4c(c3)OCO4)CC2)nc1,AC50,[4],"5.01 µM [rising, full curve]"
same,max response,[1]; [7],76.9%
same,AC50,[1]; [8],"25.1 µM [rising, partial curve]"
same,AC50,[1]; [9],"28.2 µM [rising, partial curve]"
same,max response,[1]; [10],106%
same,AC50,[2]; [11],"26.9 µM [rising, single point]"
Cc1nc2c(OCc3ccccc3)cccn2c1CC#N,max response,[1]; [7],104% and 45.8%
same,AC50,[1]; [8],"2.51 µM [rising, full curve]"
same,AC50,[1]; [9],"2.24 µM [rising, full curve]"
same,max response,[1]; [10],138% and 39.6%
same,AC50,[2]; [12],"23.9 µM [rising, full curve, poor fit]"
same,AC50,[5]; [13],"6.51 µM [rising, single point]"
CC1=C(/C=C/C(C)=C/C=C/C(C)=C/C(=O)O)C(C)(C)CCC1,max response,[1]; [7],22.2% and 33%
same,AC50,[1]; [8],"17.8 µM [rising, full curve, poor fit]"
same,AC50,[1]; [9],"35.5 µM [rising, single point] and 15.8 µM [rising, full curve, poor fit]"
same,max response,[1]; [10],40.1% and 41.2%
same,AC50,[2]; [12],"9.53 µM [falling, partial curve, poor fit]"
same,AC50,[5]; measured here: CBG/CBR ratio read-out,"2.31 µM [falling, full curve]"
same,AC50,[5]; [13],"1.84 µM [falling, full curve]"
same,AC50,[6],"0.178 µM [falling, full curve, poor fit]"
Cc1cc(NC(=O)Nc2ccc3c(ccn3C)c2)sn1,max response,[1]; [7],55.8% and 42.2%
same,AC50,[1]; [8],"562 nM [rising, full curve, poor fit] and 2.24 µM [falling, full curve, poor fit]"
same,AC50,[1]; [9],"501 nM [rising, full curve, poor fit] and 2.24 µM [falling, full curve, poor fit]"
same,max response,[1]; [10],76.1% and 44.5%
same,AC50,[2]; [12],"95.3 µM [falling, single point]"
same,AC50,[2]; [11],"1.9 µM [rising, full curve, poor fit]"
CC(=O)O[C@]1(C(C)=O)CC[C@H]2C3C=C(Cl)C4=CC(=O)[C@@H]5C[C@H]5[C@]4(C)C3CC[C@@]21C (stereo partly drawn),max response,[1]; [7],48.7%
same,AC50,[1]; [8],"39.8 µM [rising, single point]"
same,AC50,[1]; [9],"39.8 µM [rising, single point]"
same,max response,[1]; [10],47.2%
same,AC50,[2]; [12],"84.9 µM [falling, single point]"
same,AC50,[2]; [11],"84.9 µM [falling, single point]"
O=C1Cc2c([nH]c3ccc(Br)cc23)-c2ccccc2N1,max response,[1]; [7],67.8% and -62.9%
same,AC50,[1]; [8],"1.41 µM [rising, full curve] and 31.6 µM [falling, partial curve, poor fit]"
same,AC50,[1]; [9],"1.26 µM [rising, full curve] and 3.55 µM [falling, full curve, poor fit]"
same,max response,[1]; [10],76.3% and -68.3%
same,AC50,[2]; [11],"0.135 µM [rising, full curve, poor fit]"
same,AC50,[5]; [13],"2.91 µM [falling, single point]"
CCCn1c(=O)c2[nH]c(C3CCCC3)nc2n(CCC)c1=O,max response,[1]; [7],86.8% and 52.4%
same,AC50,[1]; [8],"14.1 µM [rising, partial curve]"
same,AC50,[1]; [9],"14.1 µM [rising, partial curve]"
same,max response,[1]; [10],110% and 50.1%
same,AC50,[2]; [11],"84.9 µM [falling, partial curve]"
same,AC50,[5]; [13],"0.0651 µM [falling, full curve]"
Cc1cc(C(C)(C)C)c(O)c(C)c1CC1=NCCN1,max response,[1]; [7],-4.21%
same,AC50,[1]; [8],"2.82 µM [falling, full curve, poor fit]"
same,AC50,[1]; [9],"2.82 µM [falling, full curve, poor fit]"
same,max response,[1]; [10],-4.61%
same,AC50,[2]; [12],"67.5 µM [falling, partial curve, poor fit]"
same,AC50,[2]; [11],"75.7 µM [falling, partial curve, poor fit]"
